# The supplement of paper PMC8728848
# The list shows a part of the results.
# B1: CLECSF8 (Mus musculus), Q9Z2H6 (protein)
# chain: HYFLRWTRGSVVKLSDYHTRVTCIREEPQPGATGGTWTCCPVSWRAFQSNCYFPLNDNQTWHESERNCSGMSSHLVTINTEAEQNFVTQLLDKRFSYFLGLADENVEGQWQWVDKTPFNPHTVFWEKGESNDFMEEDCVVLVHVHEKWVWNDFPCHFEVRRICKLPGITFNWKPSK
# How the values were obtained:
# Assay in all cases: glycan array binding signal (z-score within array); higher = stronger binding
# Details in all cases: glycan notation: IUPAC condensed, linker removed
# [1] = target: Xyl(b1-2)[Man(a1-3)][Man(a1-6)]Man(b1-4)GlcNAc(b1-4)GlcNAc
# Outline: (§1)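 Arrays were curated from the Consortium for Functional Glycomics database, 3228 in total, and kept only where the protein sequence was available. Binding is expressed as a within-array Z-score. This score was averaged across arrays of the same protein sequence at different concentrations or buffers and across linkers, and negative values can be read as non-binding.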
# [2] = target: Xyl(b1-2)[Man(a1-3)][Man(a1-6)]Man(b1-4)GlcNAc(b1-4)[Fuc(a1-3)]GlcNAc
# Outline: as §1
# [3] = target: Xyl(b1-4)Xyl(b1-4)Xyl(b1-4)Xyl(b1-4)Xyl
# Outline: as §1
binder,measurement,setting,value
B1,glycan array binding signal (z-score),[1],-0.424
same,glycan array binding signal (z-score),[2],-0.424
same,glycan array binding signal (z-score),[3],1.27
